The text below walks through data of paper PMC12136788.

T1: UNK ZnF1-6 (called full-length) (human, UniProt Q9C0B0 30-357)
T1 sequence: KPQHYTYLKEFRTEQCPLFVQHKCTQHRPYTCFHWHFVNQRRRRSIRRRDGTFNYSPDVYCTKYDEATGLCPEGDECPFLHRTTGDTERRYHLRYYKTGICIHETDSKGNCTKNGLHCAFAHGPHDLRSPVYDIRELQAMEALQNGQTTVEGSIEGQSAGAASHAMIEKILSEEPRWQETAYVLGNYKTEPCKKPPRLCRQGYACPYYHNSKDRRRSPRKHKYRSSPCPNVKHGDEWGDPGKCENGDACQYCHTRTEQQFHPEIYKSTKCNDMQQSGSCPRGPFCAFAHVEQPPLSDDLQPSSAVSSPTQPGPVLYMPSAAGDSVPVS

B1: chr13:24435137:24435247:-|CDS|ENSG00000102699|unk|FALSE|unique (ssRNA)
RNA: GGGAGUUCUACAGUCCGACGAUCAAACCAACAGCAACUGAACCACUAUUUAAGAAAGUCAGUCCAUGGGAAACAUCUACUUCUAGCUUUUUUCCUAUUUUGGCUCCGGCCGUUGGUUCCUAUCUUCCCCCGACUGCCCGCGCUCAACAGAGGAUUGAGCAUCA
B2: chr3:149369464:149369565:-|3pUTR|ENSG00000169908|msi1_unk|FALSE|overlapping (ssRNA)
RNA: GGGAGUUCUACAGUCCGACGAUCAAAUAACAUUCCAAUCACUAUUGUAUAUAUGUGCAUGUAUUUUUUAAAUUAAAGAUGUCUAGUUGCUUUUUAUAAGACCAAGAAGGAGAAAAUCCGACAACCUGGAAAGAUUUUUGUUUUCAACAGAGGAUUGAGCAUCA
B3: chr1:235448940:235449205:-|3pUTR|ENSG00000162885|unk|FALSE|unique (ssRNA)
RNA: GGGAGUUCUACAGUCCGACGAUCAAUAGAGAAUUCCAUUAAAACUAGUCUUAUGACAGAUAUUAACUGUGUUCAGAUUUUAUUAGGCUAGCUAGUUUCUUUCUAUUUAAUAUUUAAAUCUUAUCAUGAAAUGCAGUGAUGAGCCAACAGAGGAUUGAGCAUCA
B4: chr6:39540002:39540221:-|CDS|ENSG00000164627|control|control|control (ssRNA)
RNA: GGGAGUUCUACAGUCCGACGAUCCCACUUGGCUGGCAUGGAUAGACGUGAAUUCAGACAGUCCCAGAGCCCACCCUUCCGCCUAGGAAACCCAGAAGAAGGUCAAAGAAUGCGACUAUCCUCAGCUCCCUCACAGGCCCAGGACAACAGAGGAUUGAGCAUCA
B5: chr16:58599380:58599482:-|5pUTR|ENSG00000125107|unk|FALSE|unique (ssRNA)
RNA: GGGAGUUCUACAGUCCGACGAUCCAGAACAGAGUAAGACCCCUGGUAAAGAAGAACUGAAGAUAUUAUACAGAUACCAGAUAUAGCCUAAUUACAAAGAAAGCAUUAACCUGCCUCUGAGGUGACUAAAGGGGAAUAAUGGUGCAACAGAGGAUUGAGCAUCA
B6: chr1:113685846:113685948:+|3pUTR|ENSG00000081026|unk|FALSE|unique (ssRNA)
RNA: GGGAGUUCUACAGUCCGACGAUCUAUAUACACUUGAGGUUCUGAUUAGAGAAAGAUCUGUAAAUUGCUCAUUAUUUUUUAUAUAGAUAUUUAAAAAAAACAGUUUAUGGCCUGCAUUUCUUUUACUGUCACAUUGGUUUAAUGCAACAGAGGAUUGAGCAUCA
B7: chr21:44497892:44499936:-|three_prime_utr|ENSG00000175894|control|control|control (ssRNA)
RNA: GGGAGUUCUACAGUCCGACGAUCGUGGGGCGGGACCCCAGCACCUCCCCCAACUGACCCUGGACGUCCAGGUGGGCCCAGCCUAGGGCAUCCCGGGCCUGGGCAUCAGGCAGGGUGCAGGUGGGGCCAUCUGCGGCCCUGGUUCAACAGAGGAUUGAGCAUCA
B8: ENSG00000198589:be:win_7101|CDS|ENSG00000198589|bound_else_gene|NA|bound_elsewhere_windowed (ssRNA)
RNA: GGGAGUUCUACAGUCCGACGAUCUCUUGGAGUGAUGGAUGAUGGGACAGUAGUGUCUGAUGUCGAACUUCCUCCUUGGGCCAAAACCUCAGAAGAAUUUGUUCACAUAAACAGAUUGGCCCUGGAGAGUGAAUUUGUUUCCUGCAACAGAGGAUUGAGCAUCA
B9: chr9:37441208:37441377:-|CDS|ENSG00000168795|unk|FALSE|unique (ssRNA)
RNA: GGGAGUUCUACAGUCCGACGAUCAGGGUAGGUGAUAUCCAUAUUUUGGAAGUCACAAAUAACCUAGAGCAUAAGUCCACUUUUAGUAUUUCGAAUUUUCUUAACAAGAGCAGAGGAAAUAACUUUACUGCAAAUCAGAACAAUCAACAGAGGAUUGAGCAUCA
B10: chr9:122240152:122240253:-|3pUTR|ENSG00000119446|msi1|FALSE|unique (ssRNA)
RNA: GGGAGUUCUACAGUCCGACGAUCCUUCUUGGAGUAUAGAAUUCACCAUUUUAUCCGUAAGUCUUCAAAGGAUUAUGGUGGACUAGAACUUACAUAGUGCAAAAUAGUCUUCUAUUUUUAAUAGGAACUUAGAAAAAACUUAGACAACAGAGGAUUGAGCAUCA
B11: chr3:45823315:45826332:-|three_prime_utr|ENSG00000163818|control|control|control (ssRNA)
RNA: GGGAGUUCUACAGUCCGACGAUCUCAGGCAUGUAUUUUGAAAAGCAUUUUGUCAUAUCCCCUCUCCUUAUUUUUCUAAUAUUUAGACUUUGAAUAUUUAGAACUAGAGUUCCUAUUUUCAGCUAGUUGAAAACAGAGAAAACCCAACAGAGGAUUGAGCAUCA
B12: chr5:10236899:10237040:-|CDS|ENSG00000150756|control|control|control (ssRNA)
RNA: GGGAGUUCUACAGUCCGACGAUCUAUUAUUACUUGUUCACAAAACCAUCCUCCCAGACACUUUCAUUUCACUGCUGCUGUGCUAGCCCACUGAUGGAGAGAUGCAGUGGAUUUUCAGCAAUGUUUUGUUCGACCUCCCCGGGGCAACAGAGGAUUGAGCAUCA
B13: chrX:51895182:51895295:+|CDS|ENSG00000179222|unk|total|mutant (ssRNA)
RNA: GGGAGUUCUACAGUCCGACGAUCAGUUCACAGCCCCCAACUGCCAAUGAGAUGGCUGACAUUCAGGUUUCAGCAGCUGCCGCCCGGCCUAAGUCAGCCUUUAAAGUCCAGAAUGCCACCACAAAAGGCCCAAAUGGUGUCUAUCAACAGAGGAUUGAGCAUCA
B14: ENSG00000198589:be:win_5151|CDS|ENSG00000198589|bound_else_gene|NA|bound_elsewhere_windowed (ssRNA)
RNA: GGGAGUUCUACAGUCCGACGAUCGCAGUUCAGAUCUUUUGACAGAAGUGUCAUUGUUGCAGCAAAAAAGUCAGCAGUCUCACCUUCCACCUUUAAUACAAGCAUACCUACCAAUGCUGUCAGUGUGGUUUCCUCAGUAGAUUCCAACAGAGGAUUGAGCAUCA
B15: chr7:73831540:73831641:+|CDS|ENSG00000189143|msi1|FALSE|unique (ssRNA)
RNA: GGGAGUUCUACAGUCCGACGAUCCAAGGCCAAGACCAUGAUCGUGGCGGGCGUGGUGUUCCUGUUGGCCGGCCUUAUGGUGAUAGUGCCGGUGUCCUGGACGGCCCACAACAUCAUCCAAGACUUCUACAAUCCGCUGGUGGCCAACAGAGGAUUGAGCAUCA
B16: chrX:101412715:101412817:+|CDS|ENSG00000126945|unk|FALSE|unique (ssRNA)
RNA: GGGAGUUCUACAGUCCGACGAUCGGGUAUGGAGGCUAUGAUGACUAUGGUGGCUAUAAUGAUGGAUAUGGCUUUGGGUCUGAUAGAUUUGGAAGAGACCUCAAUUACUGUUUUUCAGGAAUGUCUGAUCAUAGAUACGGAGAUCAACAGAGGAUUGAGCAUCA
B17: chr19:18306235:18307555:-|three_prime_utr|ENSG00000130520|control|control|control (ssRNA)
RNA: GGGAGUUCUACAGUCCGACGAUCCAGAAAGGAAGAGGCAGGCGCCAGGGGGAACCCCCUUCGUGUUUUGUGACCCUCCCUUUUAGGUGAAGCCCCUUUUUCUUGCUAAAACCGGCAAUUCUCCGGUUAGAAAUGUUACUUGGUCAACAGAGGAUUGAGCAUCA
B18: chr5:157463210:157463311:+|CDS|ENSG00000172548|unk|total|mutant (ssRNA)
RNA: GGGAGUUCUACAGUCCGACGAUCCAGGAAAGAAUCAGGCAGAACUAUGGCUUCUACAUCGGCCUGGGCCUGGCAUUCCUGUCCCGCUUCCUCAUCGGCAGCAGCGUCAUCCUCAAGAAGAAAGGCCUCUUGCGACUCGUGGCCCAACAGAGGAUUGAGCAUCA
B19: chr12:81257974:81259660:-|three_prime_utr|ENSG00000139220|control|control|control (ssRNA)
RNA: GGGAGUUCUACAGUCCGACGAUCAUGACUUAUUAAAAGCUGAAAAAUGUGAUUUUUGGGGGGAGUCAGAUAUUACAUUUGAUUAGUUUACUACAAAUUGUAAUAAAAUGCUUAAGUCAUUUGAAUAAUAAACAUCAUCUACAUCAACAGAGGAUUGAGCAUCA
B20: chr4:121668310:121668420:-|3pUTR|ENSG00000164111|msi1_unk|FALSE|overlapping (ssRNA)
RNA: GGGAGUUCUACAGUCCGACGAUCCCUUCAGCACCUUUAGCUGCAUUUGUAUGCCAGUGCUUAACACAUUGCCUUAUUCAUACUAGCAUGCUCAUGACCAACACAUACACGUCAUAGAAGAAAAUAGUGGUGCUUCUUUCUGAUCAACAGAGGAUUGAGCAUCA
B21: chr7:94537565:94537673:+|CDS|ENSG00000127995|unk|FALSE|unique (ssRNA)
RNA: GGGAGUUCUACAGUCCGACGAUCGAAGCCUGUAGAUGGGUCCUGUUGUCAACCUCGGCCUCCUGUUACUCUCAUACAGAAGCUAGCUGCUUGUUUUUUCACUUUAUCUAUUAUCGGAUAUUUAAUUUUUUACAUAAUUCAUCGCAACAGAGGAUUGAGCAUCA
B22: chr12:133218311:133218884:-|three_prime_utr|ENSG00000227059|control|control|control (ssRNA)
RNA: GGGAGUUCUACAGUCCGACGAUCAGAGUUCCCCUGGGGGCUCUGCUGAAAAGCAGAGAUUCUUUCCCACUGCCAUGUUUGAAUAGUUUGGUUAGCAAUUCCCUGUAGUAGAGAAAGCAUUUGAGAAAUGUUCGUGAGAUCAGACAACAGAGGAUUGAGCAUCA

This is one part of the list.

The test addresses T1, UNK ZnF1-6 (called full-length). The test can be described thus: nsRBNS (natural sequence RNA bind-n-seq); RBNS binding buffer (assumed for nsRBNS): 25 mM Tris pH 7.5, 150 mM KCl, 3 mM MgCl2, 0.01% Triton X-100, 500 ug/ml BSA, 20 U/ml SUPERase-In, 4 C; UNK is unkempt and MSI1 is Musashi-1; names of the RNAs are library labels; protein concentration not given here; high values mean tight binding.
For B1, the binding signal worked out at 1.32 enrichment R.
The figure for B2 is 2.91 enrichment R; for B3 it is 35.6 enrichment R.
As for B4, the figure is 0.794 enrichment R; as for B5, 0.956 enrichment R.
As for B6, the figure is 2.28 enrichment R; as for B7, 1.1 enrichment R.
Regarding B8, the binding signal worked out at 0.56 enrichment R.
As for B9, the figure is 1.91 enrichment R; as for B10, 41.4 enrichment R; as for B11, 2.09 enrichment R.
The figure for B12 is 0.684 enrichment R; for B13 it is 0.673 enrichment R.
The figure for B14 is 0.468 enrichment R.
B15 yielded a binding signal of 0.598 enrichment R.
The figure for B16 is 0.897 enrichment R.
As for B17, the figure is 1.21 enrichment R; as for B18, 0.855 enrichment R; as for B19, 0.956 enrichment R.
As for B20, the figure is 0.51 enrichment R.
As to B21, the binding signal stood at 3.22 enrichment R.
B22 gave a binding signal of 1.15 enrichment R.
